# Data as given in PubChem BioAssay AID1346428 (National Center for Advancing Translational Sciences (NCATS), 2018).
# “And” between values parts separate entries of the source, which are not always exact repeats. Equal values may be shown once. In all, about 48,000 compounds went through this assay and about 1,200 (2.5%) were called active. About 2% were inconclusive and are not listed.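 The calls were made as follows: active = activation of at least 60% and not above a set upper limit (about 1 call in 100 departs from these limits); inconclusive = activation of 40% to 60%, or above that upper limit; inactive = activation under 40%.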 Some of the results follow.
# Biological target: Probable G-protein coupled receptor 32 (Homo sapiens) (UniProt O75388)
# Experiment: qHTS for Agonists of Human Resolvin D1 Receptor DRV1
# Conditions: CHO-K1 GPR32 beta-arrestin PathHunter luminescence, 90 min; at 76.9 µM; hits give high values; zero percent set by DMSO-only wells
# Description: Endogenous resolution of inflammation is known to be transduced through various GPCRs and their natural mediators of lipid nature. Resolvin D1 (RvD1) is one of the active players in resolution of acute inflammation through regulation of anti-inflammatory pathways; it is known to enhance phagocytosis of human macrophages, limits neutrophils infiltration, etc. […] The search for GPR32-activating small molecules with anti-inflammatory effects similar to its natural omega-3 derivative ligand in order to use them as research tools for further studies of inflammation and its resolution was the goal of this screening project. For primary screening assay, we used CHO-K1 GPR32 beta-arrestin cell line (DiscoveRx, #93-0321C2A) and the PathHunter(R) beta-Arrestin Assay (DiscoveRx) which measures recruitment of beta-arrestin to the GPR32 and generates chemiluminescent signal. These engineered cells stably transfected with GPR32 co-express GPR32-fused small 42-amino acid fragment of beta-Gal called ProLinktrade mark, and […] -tagged beta-Arrestin fusion protein. When GPR32 is activated by a ligand, it stimulates binding of beta -Arrestin to ProLink-tagged GPR32, and two parts of beta-Gal complement forming a functional enzyme. Upon substrate (PathHunter(R) Detection reagent) addition, beta-Gal hydrolyzes it and generates a chemiluminescent signal.
# The cells were thawed and plated in thawing media containing F-12 HAM (Invitrogen, #11765-054), 10% FBS (Invitrogen, #10082), 1x Glutamine, and 1x Pen/Strep onto the 175-mm flask for 24 hours. Then, thawing media was replaced with Growth media which contains 800microg/mL Geneticin (Invitrogen, #10131) and 300microg/mL Hygromycin B (Invitrogen, #10687) in addition to described above. For the assay, the cells were harvested at ~80% confluent stage with Cell Dissociation buffer (Gibco, #13151), and seeded at 2,500 cells/ 3microL/well in assay media (PathHunter(R) Cell Plating Reagent, DiscoverX, #93-0563R1B) using MultiDrop Combi dispenser (Thermo Scientific, Logan, UT) onto white solid bottom tissue culture-treated 1536-well plates (Greiner # 789173-F) and allowed to attach overnight at 37 degrees C, 95% humidity, 5% CO2, . Next, 23nL/well of compound solutions in DMSO were added with a Pin Tool (Kalypsis, San Diego, CA) to the assay plates. As the basal control (EC0), 23 nL/well of DMSO was used on each plate. The cells were incubated in the presence of compounds or DMSO for 90 minutes at 37 degrees C, 5% CO2. Subsequently, 1.5microL/well of PathHunter(R) Detection Reagent prepared per the manufacturer's instructions was added to the assay plates with BioRAPTR FRDtrade mark dispenser (Beckman Coulter, San Francisco, CA) and incubated for 1 hour at ambient temperature prior to the measurement of the luminescent signal on ViewLux(R) uHTS Microplate Imager (Perkin Elmer, Waltham, MA).
# Sequence of UniProt O75388 (O75388 whole entry, looked up): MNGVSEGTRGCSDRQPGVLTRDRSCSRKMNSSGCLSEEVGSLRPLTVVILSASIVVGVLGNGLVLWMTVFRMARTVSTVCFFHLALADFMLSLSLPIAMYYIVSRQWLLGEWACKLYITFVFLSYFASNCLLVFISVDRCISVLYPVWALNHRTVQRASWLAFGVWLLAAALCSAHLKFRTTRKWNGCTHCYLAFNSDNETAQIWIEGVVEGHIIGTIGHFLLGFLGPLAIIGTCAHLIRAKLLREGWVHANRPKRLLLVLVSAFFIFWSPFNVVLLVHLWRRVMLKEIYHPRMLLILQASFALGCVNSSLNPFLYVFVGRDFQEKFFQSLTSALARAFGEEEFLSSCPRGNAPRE
row,Structure (SMILES),activation
1,Cc1c(CCC(=O)NCCc2ccccc2)c(=O)oc2cc(O)ccc12,inactive: 37.2%
2,COc1ccc2c(c1)c1c(c(=O)n(-c3ccc(F)c(Cl)c3)c(=O)n1Cc1cccc(C)c1)n2C,inactive: -8.31%
3,Cc1ccc(-n2nc(C)c3nc(CCC(=O)Nc4cccc(C)c4C)c(=O)n(C)c32)cc1,inactive: 0.322%
4,Cc1cc(C)c2c(CC(=O)Nc3ccc(F)cc3)coc2c1,inactive: 23.2%
5,CCCS(=O)(=O)c1nc(S(=O)(=O)c2ccc(C)cc2)c(N(CC)CC)s1,inactive: -34.1%
6,CCOC(=O)c1ccc(NC(=O)CSc2c(C(C)C)cnc3c2c(=O)n(C)c(=O)n3C)cc1,inactive: -21.8%
7,COc1ccc(CNC(=O)Cn2nc3c(cc2=O)CCCC3)cc1,inactive: 1.35%
8,Cc1cccc(N2C(=O)N(Cc3cc(=O)n4ccccc4n3)c3ccccc3S2(=O)=O)c1,inactive: -9.45%
9,CCc1ccc(NS(=O)(=O)c2ccc3[nH]cc(C(=O)NCCc4cccc(C)c4)c(=O)c3c2)cc1,inactive: -17.3%
10,COc1ccc(-n2cc(C(=O)OCc3ccc(F)c(F)c3)c3ccccc3c2=O)cc1,inactive: -7.26%
11,Cc1ccc(OC(=O)c2cc(-c3ccc(Cl)cc3)on2)c(C)c1,inactive: 11.8%
12,Cc1cccc(N2CCN(C(=O)CCc3c(C)nc4c(c3C)c(=O)n(C)c(=O)n4C)CC2)c1C,inactive: -2.03%
13,COc1ccc(C2C(=O)N(C3CCCCC3)CC(=O)N2CCC2=CCCCC2)cc1 (stereo unspecified),inactive: -33.1%
14,O=C(NC1(C(F)(F)F)C(=O)Nc2c1c(=O)[nH]c(=O)n2-c1ccc(F)cc1)c1ccccc1 (stereo unspecified),inactive: 6.59%
15,CCOc1ccc(-n2c(=O)c3sc4ccccc4c3n(Cc3cccc(C)c3)c2=O)cc1,inactive: 4.71%
16,CC1CCC(NC(=O)c2ccc3c(c2)N(Cc2ccccc2F)C(=O)c2ccccc2S3=O)CC1 (stereo unspecified),inactive: -6.15%
17,CCOc1ccc(CCNC(=O)Cn2ncn3c(cc4sc(C)cc43)c2=O)cc1OCC,inactive: -15.2%
18,Clc1ccc(-c2cn3ncsc3n2)cc1,inactive: 1.48%
19,COc1ccc2c(c1)sc1ncc(C(=O)NCc3ccc(Cl)cc3)c(=O)n12,inactive: 1.07%
20,CCN1CCN(c2oc(/C=C/c3ccc(OC)c(OC)c3)nc2C#N)CC1,inactive: -9.29%
21,O=C(NCc1ccccc1)C(=O)NCC(c1ccc2c(c1)OCO2)N1CCOCC1 (stereo unspecified),inactive: -16.3%

row,Structure (SMILES),activation
1,COc1ccccc1NC(=O)c1cc(S(=O)(=O)NCCc2ccccc2)ccc1F,inactive: -25%
2,Cc1ccc(CN2CCSc3ccc(C(=O)N4CCN(c5ccc(Cl)cc5)CC4)cc32)cc1,inactive: -35.2%
3,COc1cccc(CNC(=O)C(NS(=O)(=O)c2cccs2)C(C)C)c1 (stereo unspecified),inactive: 8.42%
4,COc1cccc(CNC(=O)c2ccc3nc(N4CCCCC4)sc3c2)c1OC,inactive: 9.25%
5,CCCCN1C(=O)c2[nH]nc(-c3ccccc3O)c2C1c1cc(Br)c(O)c(OC)c1 (stereo unspecified),inactive: -12%
6,C[C@]12CCC(=O)C=C1CC[C@@H]1[C@@H]2[C@@H](O)C[C@@]2(C)[C@H]1CC[C@]2(O)C(=O)CO,inactive: -0.779% and inactive: 11%
7,O=c1c2cccnc2n(Cc2ccccc2F)c(=O)n1Cc1ccc(F)cc1,inactive: -30.5%
8,COc1ccc(NC(=O)Cn2c3ncccc3c(=O)n2-c2ccc(C)c(C)c2)c(OC)c1,inactive: -13.6%
9,CCCCc1nn2c(=O)cc(COC(=O)c3ccc(NC(=O)c4ccccc4Cl)cc3)nc2s1,inactive: -25.2%
10,CCOCCCNC(=O)C(c1ccc(OC)cc1)N(Cc1ccc2c(c1)OCO2)C(=O)c1ccc(NC(C)=O)cc1 (stereo unspecified),inactive: -2.59%
11,Nc1nc2ccccc2n1Cc1ccc(F)cc1,inactive: 48%
12,COc1ccc(CCNC(=O)CCCn2c(=O)c3ccccc3n(Cc3cccc(Cl)c3)c2=O)cc1OC,inactive: 6.2%
13,CCOc1ccc(N(C(=O)CC(C)C)S(=O)(=O)c2ccc3c(c2)oc(=O)n3C)cc1,inactive: -15.1%
14,Cc1ccc(-c2nc3scc(CCNC(=O)Cc4ccc(Cl)cc4)n3n2)cc1,inactive: 32.9%
15,CCC(=O)Nc1c(C(=O)N2CCN(c3ccc(F)cc3)CC2)oc2ccccc12,inactive: -0.474%
16,COc1ccc(CCNS(=O)(=O)c2ccc3c(c2)CC(C)N3C(=O)C2CCC2)cc1OC (stereo unspecified),inactive: 30.2%
17,COc1ccc(S(=O)(=O)n2nc(C)c(S(=O)(=O)N3CCC(C)CC3)c2C)cc1C,inactive: -12.2%
18,O=C1NCCN(Cc2ccc(F)cc2)C1=O,inactive: 9.71%
19,Cc1cccc(C)c1NC(=O)CSc1nc(-c2ccccc2)nc2c1Cc1c(CO)cnc(C)c1O2,inactive: -15.7%
20,CCCn1c(SCc2nc(-c3ccc(OC)cc3OC)no2)nnc1-c1ccc(Cl)cc1,inactive: -6.69%
21,CCC1CN(C(=O)N2CCC(C(=O)NCCc3ccc(Cl)cc3)CC2)c2ccccc2O1 (stereo unspecified),inactive: -14.9%

row,Structure (SMILES),activation
1,CCN(CC)c1ccc(NS(=O)(=O)c2ccc(-c3cnc(C4CC4)o3)cc2)c(C)c1,inactive: -18.7%
2,COc1ccc(-c2noc(CN(C(=O)COc3cc(C)c(Br)c(C)c3)C(C)C)n2)cc1,inactive: 3.48%
3,Cn1c(SCc2ccc(F)cc2)nc2ccc(C(=O)NCc3ccc(Cl)cc3)cc21,inactive: -2.39%
4,COc1ccc(NC(=O)Cn2nnc(C(=O)Nc3ccc(F)c(Cl)c3)c2N)cc1OC,inactive: -11.6%
5,Cc1ccc(NC(=O)Cn2cc(C(=O)C3CC3)c3ccccc32)cc1,inactive: -1.93%
6,COC(=O)c1scc(-c2ccc(C)cc2)c1S(=O)(=O)Nc1cc(Cl)ccc1C,inactive: -25.1%
7,Cn1c(=O)c(=O)n(C)c2cc(N3CCOCC3)c(NS(=O)(=O)c3ccc(Cl)cc3)cc21,inactive: -5.58%
8,CCOC(=O)c1[nH]c2c(c1Cc1ccccc1)C(=O)CC(c1ccc(Cl)cc1)C2 (stereo unspecified),inactive: -17.5%
9,CCc1ccc(S(=O)(=O)c2cn(CC(=O)Nc3ccc(C)cc3)c3ccccc3c2=O)cc1,inactive: -19.2%
10,CCOc1ccccc1NC(=O)c1sc2nc3n(c(=O)c2c1C)CCCCC3,inactive: 2.79%
11,COCCOC(=O)c1c(C)n(S(=O)(=O)c2ccc(C)cc2)c2ccc(NS(=O)(=O)c3ccc(C)cc3)cc12,inactive: -7.98%
12,CCOC(=O)c1ccc(NC(=O)c2c(NC(C)=O)sc3c2CCC(C)C3)cc1 (stereo unspecified),inactive: -30.3%
13,CCOc1ccc(CCNC(=O)c2ccc3c(Cl)c4c(nc3c2)CCCC4)cc1,inactive: -4.39%
14,O=S(=O)(NCCc1nnc2ccc(SCc3ccc(Cl)cc3Cl)nn12)c1ccccc1,inactive: 0.218%
15,COc1cccc(C(c2sc3nc(-c4ccco4)nn3c2O)N2CCC(O)CC2)c1 (stereo unspecified),inactive: 3.61%
16,Cc1c2cnn(-c3ccccc3)c(=O)c2c(C)n1CCCC(=O)Nc1cc(F)ccc1F,inactive: -15.2%
17,Cc1cccc(C)c1NC(=O)C(NS(=O)(=O)c1ccc2c(c1)CCC(=O)N2)c1ccccc1 (stereo unspecified),inactive: -3.38%
18,COC(=O)c1nc2n(n1)C(c1cccc(Cl)c1)C(C(=O)Nc1ccccc1OC)=C(C)N2 (stereo unspecified),inactive: -29.3%
19,COc1ccc(N2CCN(S(=O)(=O)c3ccc4oc(=O)c5ncn(C)c5c4c3)CC2)cc1,inactive: 14.5%
20,COc1ccc(-c2nc3sc(CCNC(=O)c4cc(OC)c(OC)c(OC)c4)c(C)n3n2)cc1,inactive: 9.26%
21,CCOc1ccc(NC(=O)CSc2ncc3c(n2)-c2ccc(Cl)cc2N(Cc2ccccc2)S3(=O)=O)cc1,inactive: 19.3%

row,Structure (SMILES),activation
1,O=C(CSC1=Nc2ccccc2C2=NC(CC(=O)NC3CCCCC3)C(=O)N12)Nc1ccc(F)cc1 (stereo unspecified),inactive: -31.1%
2,CCN(c1cccc(C)c1)S(=O)(=O)c1nnc(NC(=O)C2CCCCC2)s1,inactive: -20.9%
3,O=C(CSc1nc2ccccc2nc1Cc1ccc(Cl)cc1)N1CCc2ccccc21,inactive: -18.8%
4,CCc1ccc(CNC(=O)CN2C(=O)c3cccnc3Oc3ccc(Cl)cc32)cc1,inactive: -12.7%
5,Cc1ccc(-c2nc(C)c(CCNC(=O)c3ccco3)s2)cc1,inactive: 28.8%
6,Cc1ccc(C)c(N2CCN(S(=O)(=O)c3cc(Br)cc4c3N(C(=O)C3CC3)CC4)CC2)c1,inactive: -14.6%
7,COc1ccc(C)cc1NC(=O)c1oc2ccc(S(=O)(=O)N3CCCCC3)cc2c1C,inactive: -1.32%
8,CCOc1ccc(C2c3[nH]c4ccccc4c3CCN2C(=O)CCc2ccccc2)cc1 (stereo unspecified),inactive: -37.9%
9,CCOC(=O)c1ccc(NC(=O)CCn2c(=O)c3cccn3c3ccccc32)cc1,inactive: -15%
10,CCOc1ccc(CCNC(=O)c2sc3nc4n(c(=O)c3c2C)CCCC4)cc1OCC,inactive: -6.27%
11,O=C(C1CCN(S(=O)(=O)c2ccc(Br)s2)CC1)N1CCN(c2cccc(Cl)c2)CC1,inactive: 28.3%
12,COc1cc(C(=O)NCCCc2nc3ccccc3n2CC(C)C)cc(OC)c1OC,inactive: 5.71%
13,Cc1ccc(Sc2c(C)nn(C(=O)COc3ccccc3Br)c2C)cc1,inactive: -3.16%
14,Clc1ccc2c(c1)Nc1ccccc1S2,inactive: 6.2%
15,CCOC(=O)c1c(NC(=O)c2ccc(S(=O)(=O)N3CCC(C)CC3)cc2)sc2c1CCN(C)C2,inactive: -18.5%
16,NC(=O)c1c(NC(=O)c2nc(SCc3ccccc3F)ncc2Cl)sc2c1CCCC2,inactive: 20.2%
17,COc1ccc(-n2c(SCC(=O)Nc3ccc(Cl)c(C)c3)nc3n[nH]c(C)c3c2=N)cc1,inactive: -8.32%
18,Cc1ccc2[nH]c(CSc3nnc(NC(=O)COc4ccccc4)s3)cc(=O)c2c1,active: 75.8%
